Measured values from the supplement of paper PMC4466236.
Over roughly 33,000 sequences, “E-score (dimensionless, -0.5 to 0.5)” has its median near -0.058; the highest 2% begin near 0.35. Some of the results follow.

tested on: MvaT; assay: PBM 8-mer E-score (mean of HK and ME arrays) (E-score (dimensionless, -0.5 to 0.5)); higher = stronger relative binding preference; most listed sequences are background and not binding sites
Procedure, shortened: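 Full-length P. aeruginosa MvaT carrying an N-terminal glutathione S-transferase tag was tested by protein binding microarray following a previously described protocol. Two universal double-stranded 60-mer arrays, ME and HK, were used, each with a constant 25-mer primer region and a variable 35-mer region covering all 8-mers. The rank-based E-score is the mean of the two arrays, parsed with a custom script. Its range runs from -0.5 to 0.5 for each 8-mer.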

Sequence | PBM 8-mer E-score
GATCTAGA | -0.000593
ACATCCAT | 0.144
AACTAAGA | 0.204
AGATTTCA | 0.00665
TATTAAGA | 0.366
GTATTTGA | 0.319
ATCTATTC | 0.12
GGAGCGAA | -0.245
ATGGCATC | -0.214
CGGTACGC | -0.229
GGGCAGTA | -0.171
GGGTCACA | -0.0551
CCTGTTCC | -0.192
CGTCGCAC | -0.232
ACGGGATG | -0.224
TCGAAGCA | -0.0397
CGCCATAA | 0.111
GAGAACAC | 0.0243
GAACCACA | -0.152
GACGTGAC | -0.112
CGGACGTC | -0.21
ACCCAGAT | -0.0429
ATAAGTCC | 0.116
TAATGAGA | 0.103
CCTGGTCC | -0.313

Sequence | PBM 8-mer E-score
CAAGTCTA | 0.0298
TAGGGCGA | -0.0229
GGCTCTCA | -0.222
CATACTTA | 0.314
AGTGATTA | 0.258
AATCTGAC | -0.000891
CCCTCCGA | -0.213
CGACTATC | -0.0568
ATAGAAAT | 0.16
ATCCCCAA | 0.0566
AACACGCT | 0.0229
AATCATAC | 0.219
ACCGTCTA | -0.0941
GAGCACGC | -0.274
AAAGTCGA | 0.0426
CTTTTCTC | -0.00236
ACTCTAGC | -0.214
CTGTGTCC | -0.11
TAGCCCTA | -0.21
ACTCGGTA | 0.0381
AAGATCAG | 0.181
CTCTGATA | 0.0481
CGCGCAGC | -0.342
CCTATTCG | -0.182
AGAACGAG | -0.213

Sequence | PBM 8-mer E-score
TCCAGGCA | -0.215
CGATGTCA | -0.0694
AACGCTAG | -0.165
CCATCATC | -0.162
ACGTCTCT | -0.162
CGTCCAAC | -0.205
CTAGGCTC | -0.237
ACCGCGTG | -0.176
GCTCACAA | -0.0424
ATATCAAC | 0.338
CAGCATGA | -0.0677
AAATATCT | 0.277
ACCGGGTA | -0.126
AAGACACA | 0.0387
GTCCCGAA | -0.0191
ATAGTATG | 0.21
ATAACCTC | 0.166
CAGTGTAG | 0.0703
ACTTACGA | 0.28
AGGGTGGA | -0.109
GGAACTAC | -0.0248
CGGGAAGC | -0.143
GAAAAACA | 0.0375
CCCTGGCA | -0.134
TAGGAGGA | -0.23

Sequence | PBM 8-mer E-score
ACCTCAAA | -0.00608
CACCCGCC | -0.256
AACACCCC | -0.192
CTTACGGC | -0.205
AAACCGGA | -0.0734
CCGTCCTC | -0.24
AACCTTTA | 0.192
GCTTTGCA | 0.00198
CTGGCGCA | -0.062
GACGAGTA | 0.0969
AGAGTTAT | 0.262
GACACAGC | -0.219
CCCCCGCC | -0.384
CCAAGTAA | 0.155
GTGCCCAC | -0.127
CTTTTAGA | 0.0225
CCTCTCTA | -0.0699
CTCTTGTA | 0.119
GGCACGGA | -0.224
CTCCATAC | -0.0527
ACACTAGG | 0.0577
GACGCTTA | -0.00715
GCGCGTGA | -0.221
AAAACCAC | 0.037
GGGTACAC | -0.0872

Sequence | PBM 8-mer E-score
CCCAAGCA | -0.173
CATACAGC | -0.146
GAAGCTCC | -0.307
AGTCGTAA | 0.078
GCCACGGC | -0.266
GGGAGCAA | -0.119
GCTCCAGC | -0.299
CAATACTC | 0.106
ATGAGCTC | -0.23
CGATGGGC | -0.122
CTCTGTTC | -0.0179
CTAGAAAA | 0.134
CACGCGGC | -0.198
GGTAAAAA | 0.186
GCTAAAGA | 0.0223
TCTGATAA | 0.24
TATCCAAA | 0.1
AAGGACAC | -0.163
ACTGTCGC | -0.0147
GTGCCTCA | -0.193
GGTGGAAA | -0.0874
CACAAAGA | 0.107
GGCTTCGA | -0.221
ACGTAGAT | 0.107
GATTCCAC | -0.0141

Sequence | PBM 8-mer E-score
AGGACCAC | -0.173
GTCCTTTA | -0.0109
GGCGGGAC | -0.191
ACCTCGTC | -0.146
CGCGCCAG | -0.104
AAAGATTC | 0.0797
AAGGTGAC | -0.136
GTCGCAAC | 0.0269
CTAACATA | 0.262
GGATAATA | 0.403
AACACAGA | -0.0816
GAATTAAC | 0.256
CAGTAGAC | -0.0804
GGTGGTTA | -0.0682
CTGGTTGC | -0.126
CACGGCGC | -0.244
ACGGCTAT | -0.171
CCGTTGTC | -0.0529
AAAATTGG | 0.147
GGGCTCGA | -0.241
TAGTCACA | 0.0578
CTAAGGAG | -0.15
CCCGTATC | -0.18
GCCGGAAA | -0.0848
GAGCCTCA | -0.239

Sequence | PBM 8-mer E-score
GGTTGCAC | -0.174
AGCTGGCC | -0.255
GATAGGGC | -0.179
GCGATTTA | 0.0849
AAAGGAAT | 0.182
CATCCTAC | -0.22
AGCCACTG | -0.0963
GAATCTAA | 0.0908
CCCCCGAA | -0.319
AACTGAGT | -0.0534
CCTCCTCA | -0.284
TCCAGACA | -0.13
GACTTGTA | 0.0741
AGCCCAGG | -0.263
GAGACGCC | -0.302
GTAACTCA | 0.116
AGACACGC | -0.0796
AATGGTAT | 0.1
CTACCTCC | -0.196
AAGGAGGG | -0.287
CAAACGGA | 0.123
ACACTGCG | -0.134
ACCCATAC | 0.0312
ACTGCCCT | -0.182
AAAAAGGC | -0.0522

Sequence | PBM 8-mer E-score
AAAGTGCA | 0.106
CGCGGCGC | -0.0697
ACATAGAT | 0.201
CAAGAGAC | -0.183
ATCGCTGA | -0.165
CCCCACAC | -0.135
CCCCTTTC | -0.166
TCACCGGA | -0.182
GGAGAAAC | -0.0882
ATGTGATG | -0.112
ATCAAAGC | 0.00523
TCGGCCGA | -0.0545
TAGCTACA | -0.0781
TAGCGAAA | 0.0719
ACAGCTGT | -0.167
AATTTGAT | 0.26
CGTCGCTC | -0.145
GGGCCCAC | -0.271
ACCGCTCA | -0.25
ATTTCGAC | 0.112
GCAACAGC | -0.0926
CGGGAGTA | 0.0408
ACTCGGAA | 0.0222
TATCGGCA | -0.0374
CCCCAATC | -0.177

Sequence | PBM 8-mer E-score
TTCAGCAA | 0.11
ACAACCGC | -0.0804
CGGATAAG | -0.103
CGTGGCCC | -0.128
AATCTCGA | 0.179
ACCATATA | 0.332
GGGGTGCA | -0.187
CGACTGCG | -0.241
GTCATGAC | 0.063
ACCAAATG | 0.0683
ACCCTAGT | -0.0199
CGAAACAA | 0.161
GCAATCCA | -0.0685
GAAACTCA | -0.131
AAGAGCGA | -0.0398
GTCCTGCA | -0.189
ACATTTCG | 0.175
ATGGTCCG | -0.0605
CCCCCCGA | -0.273
ATGCGGGC | -0.198
CGGTGTTA | 0.107
ACATCAGT | 0.0159
CAAGAAAC | 0.0789
ATGCACGC | -0.239
CGTACAAC | 0.0206

Sequence | PBM 8-mer E-score
TCCTACAA | -0.112
AGTCGCAG | -0.147
TGCCCACA | -0.106
GCCCCGTA | -0.173
GGCCACTA | -0.107
CAACCCAA | 0.0539
ACCAGGCT | -0.122
GGTTGGAA | -0.00665
ACGTTGTC | -0.19
CGAGACAG | -0.231
ATGAGTAG | 0.111
AAGCACGC | -0.0662
GAAAGTTA | 0.346
CATGAGCG | -0.229
GCCCTAGA | -0.107
GACCTATC | -0.216
AATAAACT | 0.293
AAAACACA | 0.118
AAAAAAAG | 0.0824
TGGGCTAA | 0.0167
AACGGTCG | -0.137
CCTCGGCG | -0.268
AGGAGCCC | -0.352
AAGTCGAC | -0.0082
GATGAAAA | 0.0924

Sequence | PBM 8-mer E-score
CTTCAACA | 0.0315
AAATGCTC | -0.0104
CTTCTTAA | 0.0925
AGCAATTC | -0.105
AGGGCGCG | -0.164
CCTCAGTC | -0.185
CCACCATC | -0.107
AAACTCAG | 0.085
CGCCCGAA | -0.0347
ATTCCATA | 0.152
CGATTTAC | -0.101
AATGTTTA | 0.304
ATTACCCA | 0.283
TCTTATCA | 0.177
ACTAGGTC | -0.194
GATCGCCC | -0.152
ACAAGCTA | -0.0503
CGACGGCC | -0.158
ACGAGCCG | -0.244
AAAACGCT | 0.0807
AGGAATTC | 0.00711
CAACTATA | 0.296
ACCGTCCA | -0.133
ACGGGGTG | -0.259
TGAATTAA | 0.376

Sequence | PBM 8-mer E-score
CCTTCACC | -0.245
AGATTGGG | -0.0767
ACGTCAAT | 0.201
AAAATTTC | 0.262
ATGCAGCA | -0.0483
CAACGGTG | -0.199
CACCGCGA | -0.074
AAAGTTGG | 0.229
AGCGTAAC | -0.0274
GACGAGTC | -0.251
CCGTTACG | -0.144
CTTTCCCA | -0.144
ACGCTCTA | 0.052
CGCTGCGA | -0.223
TAATGATA | 0.192
GGTGCCAC | -0.245
AAAATGAT | 0.175
AGCGCAAG | -0.0786
CTCCGTCA | -0.216
AGTGGGTC | -0.121
ACGTAACG | -0.0176
CTAAGTAA | 0.3
AATCTGCT | -0.0198
AGGTTGCC | -0.185
AGGCACCT | -0.217

Sequence | PBM 8-mer E-score
CCTGGCCC | -0.188
CTCAATCA | 0.00229
AGCGTGCG | -0.204
CCATATAA | 0.343
GAAGAGAC | -0.058
AACAGCTA | 0.0766
CACAACCC | -0.0734
AATACGAA | 0.136
CATTTAGC | -0.0206
GTAGAAGA | 0.0424
CCGCCCTA | -0.167
CACCGGGA | -0.114
AGTATACT | 0.422
ATTAGAAA | 0.181
CACATAAG | 0.122
GCAAAGGC | -0.239
GGAAGACC | -0.247
AACTGATT | 0.171
ACGCCGAT | -0.144
AGCCAACT | 0.00249
GAGCGTAA | -0.0448
GCCGCACA | -0.138
ATATAACC | 0.37
AAACCTAG | 0.0925
GCAGCCCA | -0.265

Sequence | PBM 8-mer E-score
CCCTTTGA | -0.188
ATGCAAGG | 0.0234
AGTTTGGA | 0.151
AAAATATA | 0.43
GCCAGGAC | -0.272
GGAAGAAA | 0.0396
AAGAAGGG | -0.144
TAGGGACA | -0.263
AAAGCAAA | 0.139
CACCCATC | -0.0704
GACCGTGA | -0.135
CTGTGGCC | -0.201
AGCTGTTC | -0.131
AAACAGGT | 0.035
CAATTAAG | 0.24
AGCTACCA | -0.167
TCAACTCA | -0.0743
GAGCCAAA | -0.291
AATCAGGT | 0.0801
